{"source": "PubChem BioAssay AID1347043", "about": "(National Center for Advancing Translational Sciences (NCATS), 2019)", "note": "About 1,900 (2.5%) of roughly 76,000 compounds were called active. Inconclusive means that the source gave no clear call. Such entries were picked first, then a sample of the others. The call rests on the fitted dose curve; in most records, active means well fitted inhibition curve with a large enough effect; inconclusive means small, poorly fitted or top-dose-only effect; inactive means flat fitted curve, though single readings scatter. Where the call is inconclusive, the potency comes from a doubtful curve fit. On the % scale 0 is the no-effect control and ±100 the full control effect; potency means the concentration at half of the fitted maximal effect; tags describe the fitted curve by direction and shape."}
{"target": "Luciferin 4-monooxygenase (Photinus pyralis) (UniProt P08659)", "sequence (P08659 whole entry, looked up)": "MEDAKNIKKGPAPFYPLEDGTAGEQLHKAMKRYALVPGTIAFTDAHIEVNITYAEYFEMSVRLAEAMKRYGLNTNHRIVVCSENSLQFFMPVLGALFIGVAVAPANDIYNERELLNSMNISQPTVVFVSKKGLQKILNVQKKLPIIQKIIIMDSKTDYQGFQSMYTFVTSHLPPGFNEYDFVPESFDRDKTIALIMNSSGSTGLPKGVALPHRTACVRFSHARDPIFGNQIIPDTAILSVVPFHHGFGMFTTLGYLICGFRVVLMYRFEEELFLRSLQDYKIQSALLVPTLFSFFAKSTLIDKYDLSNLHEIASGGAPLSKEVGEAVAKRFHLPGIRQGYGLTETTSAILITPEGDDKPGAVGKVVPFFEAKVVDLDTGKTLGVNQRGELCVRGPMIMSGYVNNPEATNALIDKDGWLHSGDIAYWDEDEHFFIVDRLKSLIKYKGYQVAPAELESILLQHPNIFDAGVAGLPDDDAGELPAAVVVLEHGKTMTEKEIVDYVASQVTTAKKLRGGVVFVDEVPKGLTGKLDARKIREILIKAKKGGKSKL", "experiment": "Firefly luciferase inhibition profiling of diverse chemical library using quantitative high-throughput screening; further: nearly all actives have a fitted effect of over 65% in size", "conditions": "purified P. pyralis luciferase, luminescence, biochemical; activity change, negative = inhibition: at 115 µM (top of the series) unless noted", "procedure,_shortened": "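Biochemical qHTS: compound (6-point titration) added to 10uM D-luciferin plus 10uM ATP in Tris acetate pH 7.5 buffer with Mg, Tween-20 and BSA, then purified enzyme at 10nM; light output imaged.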"}
{"smiles": "O=C(c1cnccn1)N1CCC(Oc2ccccc2-c2nc(-c3ccccc3)no2)C1", "note": "(configuration not stated)", "Potency": "inconclusive: 79.4 µM [inhibitor, partial curve, poor fit]"}
{"smiles": "COc1ccc(-c2noc([C@@H]3CCCN3C(=O)c3ccc(C(C)(C)C)cc3)n2)cc1OC", "Potency": "inconclusive: 39.8 µM [inhibitor, partial curve]"}
{"smiles": "COc1ccc(C(=O)NCCn2ccn3nc(-c4ccc(C)cc4C)cc3c2=O)cc1F", "Potency": "active: 1.26 µM"}
{"smiles": "CCOc1ccc(C2Cn3nnc(-c4nc(-c5cccc(F)c5)no4)c3CO2)cc1", "note": "(configuration not stated)", "Potency": "inconclusive: 39.8 µM [inhibitor, partial curve]"}
{"smiles": "COc1ccc(C(=O)NCCn2cccc2-c2nc(-c3ccc4c(c3)OCO4)no2)cc1", "Potency": "inconclusive: 10 µM [inhibitor, full curve]"}
{"smiles": "c1ccc(COc2ccc(CN3CCSCC3)cc2)nc1", "Potency": "active: 10 µM"}
{"smiles": "COC(=O)[C@H](Cc1ccc(OC)cc1)NC(=O)[C@H]1CN(S(=O)(=O)c2ccccc2)CCN1C(=O)c1cccs1", "activity change, negative = inhibition": "inactive: -7.71%"}
{"smiles": "O=C1COc2ccc(N3CCOCC3)nc2CN1CCOc1ccccc1", "activity change, negative = inhibition": "inactive: -26% [at 172 µM]"}
{"smiles": "Cc1cc(C(=O)N2CC(Oc3ccc(-c4nc(-c5ccccc5)no4)cc3)C2)n[nH]1", "Potency": "inconclusive: 17.8 µM [inhibitor, partial curve, poor fit]"}
{"smiles": "COc1ccc(-c2cnc3[nH]cc(CC(=O)NCc4cnccn4)c3c2)cc1", "Potency": "inconclusive: 70.8 µM [inhibitor, partial curve]"}
{"smiles": "COc1ccc(-c2cc(N3CCCC(NC(=O)C4CCN(C(C)=O)CC4)C3)n[nH]2)cc1", "note": "(configuration not stated)", "Potency": "inconclusive: 50.1 µM [inhibitor, partial curve]"}
{"smiles": "COC(=O)COc1cccn2c(=O)c(-c3cc(C)n(-c4ccc(Cl)c(Cl)c4)n3)c(C)nc12", "activity change, negative = inhibition": "inactive: 11.8%"}
{"smiles": "COc1ccc(-c2ccc3ncc(Nc4cccc(N[S+](C)(=O)[O-])c4)n3n2)cc1OC", "Potency": "active: 39.8 µM"}
{"smiles": "Cc1cn2nc(C(=O)NCc3ccc(Cl)cc3)cc2c(=O)[nH]1", "Potency": "inconclusive: 50.1 µM [inhibitor, partial curve]"}
{"smiles": "Cc1cc2nc3n(c(=O)c2n1CC(=O)Nc1ccccc1C(C)C)CCCCC3", "activity change, negative = inhibition": "inactive: 11.5%"}
{"smiles": "COc1ccc(C(C)NC(=O)c2noc(-c3ccccc3F)n2)cc1OC", "note": "(configuration not stated)", "activity change, negative = inhibition": "inactive: -3.08%"}
{"smiles": "CC1(C)C[C@H](NCC2CCCCC2)[C@@]2(CCC(=O)N3CCCC3)CC[C@](C)(O)C[C@@H]12", "activity change, negative = inhibition": "inactive: -12.1% [at 172 µM]"}
{"smiles": "Cc1cc(C)c2[nH]c(C(=O)NCc3nc(-c4ccccn4)no3)c(C)c2c1", "Potency": "inconclusive: 89.1 µM [inhibitor, partial curve, poor fit]"}
{"smiles": "C[C@@]1(O)CCN(C(=O)c2ccc(-c3ccco3)cc2)C[C@@H]1O", "activity change, negative = inhibition": "inactive: 0.178%"}
{"smiles": "OCC1CCN(c2ccc(-c3nc(CCCc4ccccc4)no3)cn2)CC1", "Potency": "inconclusive: 39.8 µM [inhibitor, partial curve]"}
{"smiles": "O=C(NCCc1ccccc1)C1CC(c2ccccc2)CN(C(=O)c2ccccc2F)C1", "note": "(configuration not stated)", "Potency": "inconclusive: 39.8 µM [inhibitor, partial curve, poor fit]"}
{"smiles": "Cn1cc(CN2C[C@@H](F)[C@@H](OCc3nc4ccccc4[nH]3)C2)c2ccccc21", "activity change, negative = inhibition": "inactive: -9.1% [at 172 µM]"}
{"smiles": "CCCCCC(=O)Nc1ccc([C@H]2OCC(=O)N(Cc3nccn3C)[C@@H]2CO)cc1", "Potency": "active: 70.8 µM"}
{"smiles": "Cc1ccc(-c2ccc3nnc(CNC(=O)c4cccc5[nH]ccc45)n3n2)cc1C", "Potency": "inconclusive: 56.2 µM [inhibitor, partial curve, poor fit]"}
{"smiles": "CCCCNC(=O)C1CCN(C(=O)c2nnn3c2COC(c2ccc(OC)cc2)C3)CC1", "note": "(configuration not stated)", "activity change, negative = inhibition": "inactive: -9.36%"}
{"smiles": "COCCOC1CCN(C(=O)c2cc(C)n(CCOC)c2C)CC1", "Potency": "active: 20 µM"}
{"smiles": "CNC(=O)c1cccc(-c2cnc3[nH]cc(CC(=O)NCc4cccc(F)c4)c3c2)c1", "Potency": "inconclusive: 112 µM [inhibitor, single point]"}
{"smiles": "CCn1ccc(C(=O)N2[C@@H]3CC[C@H]2CC(NC(=O)c2ccc(F)cc2)C3)n1", "note": "(some centres not stated)", "activity change, negative = inhibition": "inactive: 6.24%"}
{"smiles": "CC(=O)NC1(C)CN(Cc2ccc(-c3cccc(F)c3)s2)C1", "Potency": "inconclusive: 44.7 µM [inhibitor, partial curve]"}
{"smiles": "COc1ccc(S(=O)(=O)N2CCCC(Cc3noc(-c4ccccc4)n3)C2)cc1", "note": "(configuration not stated)", "Potency": "inconclusive: 12.6 µM [inhibitor, full curve]"}
{"smiles": "O=C(c1nnc(CN2CCC(F)(F)CC2)n1-c1cccnc1)N1CCC[C@@H]1C(c1ccccc1)c1ccccc1", "activity change, negative = inhibition": "inactive: 2.82%"}
{"smiles": "COC(=O)[C@@H]1Cc2ncn(Cc3ccc(Cl)cc3)c2CN1Cc1cccc(C#N)c1", "activity change, negative = inhibition": "inactive: -5.95% [at 172 µM]"}
{"smiles": "Cc1nn(-c2ccc(C(C)(C)C)cc2)c(C)c1[C@@H]1C=C[C@@H](NC(=O)c2cccs2)C1", "Potency": "active: 20 µM"}
{"smiles": "N#Cc1ccc(C(=O)N2CCCC(n3cc(-c4nc(-c5ccccc5)no4)nn3)C2)cc1", "note": "(configuration not stated)", "Potency": "inconclusive: 44.7 µM [inhibitor, partial curve]"}
{"smiles": "COc1cc(-c2cc(C)c3c(OC)ccc(OC)c3n2)cc2c1OCCNC2", "activity change, negative = inhibition": "inactive: 4.84%"}
{"smiles": "COc1cccc(Nc2ccc3nnc(-c4cc(OC)ccn4)n3n2)c1", "Potency": "inconclusive: 112 µM [inhibitor, single point]"}
{"smiles": "COc1ccc(-c2noc(Nc3ccc4c(c3)OCCO4)n2)cc1", "Potency": "active: 0.891 µM"}
{"smiles": "O=C(N1CCC(n2cc(-c3nc(-c4ccccc4)no3)nn2)C1)C1(c2ccccc2)CC1", "note": "(configuration not stated)", "Potency": "inconclusive: 89.1 µM [inhibitor, single point]"}
{"smiles": "Fc1ccc(CCNc2nccc(-c3cccnc3)n2)cc1", "Potency": "inconclusive: 35.5 µM [inhibitor, partial curve]"}
{"smiles": "CCC[C@H]1CN(C(=O)c2cccc(N3CCOCC3)c2)C[C@@H]1N", "activity change, negative = inhibition": "inactive: -1.63%"}
{"smiles": "CN(Cc1ccccc1)Cc1cn([C@H]2CO[C@H]3[C@@H]2OC[C@@H]3NC(=O)CCC(=O)O)nn1", "Potency": "inconclusive: 89.1 µM [inhibitor, partial curve]"}
{"smiles": "O=C(N[C@H]1CCN2C(=O)c3cc(-c4ccc(F)cc4F)ccc3NC(=O)[C@H]12)c1cnccn1", "activity change, negative = inhibition": "inactive: -8.36%"}
{"smiles": "COc1ccc(C(=O)N2CCC3(CC2)CC(c2nc(C)no2)N(C)C3)c(OC)n1", "note": "(configuration not stated)", "activity change, negative = inhibition": "inactive: -0.253%"}
{"smiles": "CCCNC(=O)C1C(c2cccc(NC(=O)c3ccc(C)cc3)c2)OC(=O)N1Cc1ccc(C)cc1", "note": "(configuration not stated)", "Potency": "active: 8.91 µM"}
{"smiles": "CS(=O)(=O)N1CCC(OC2CCN(C(=O)C3(c4ccccc4)CC3)CC2)CC1", "activity change, negative = inhibition": "inactive: -7.88%"}
{"smiles": "Cc1ccc(-n2nc3n(c2=O)CCN(C(=O)C2CC2)C3)cc1", "Potency": "inconclusive: 89.1 µM [inhibitor, partial curve, poor fit]"}
{"smiles": "O[C@H]1CC[C@@H](Cc2cc(-c3ccc(F)cc3)on2)O[C@@H]1CNC1CCOCC1", "Potency": "inconclusive: 100 µM [inhibitor, partial curve, poor fit]"}
{"smiles": "CCN1C(=O)CCc2cc(NC(=O)c3ccc(OC(F)(F)F)cc3)ccc21", "Potency": "active: 14.1 µM"}
{"smiles": "COCCN1CCCCCC(O)c2cc(C(=O)Nc3cccc(OC)c3)ccc21", "note": "(configuration not stated)", "Potency": "inconclusive: 44.7 µM [inhibitor, partial curve]"}
{"smiles": "COc1ccc(CNC(=O)Nc2cccc(-c3ccc(N4CCCCC4)nn3)c2)cc1", "Potency": "active: 0.251 µM"}
{"smiles": "CCc1cccc(NC(=O)c2ccc3c(c2)N(C)C2CCCN2C3=O)c1", "note": "(configuration not stated)", "Potency": "active: 25.1 µM"}
{"smiles": "CCNC(=O)O[C@@H]1CO[C@H]2[C@@H]1OC[C@@H]2NC(=S)Nc1ccc(N(C)C)cc1", "Potency": "inconclusive: 63.1 µM [inhibitor, partial curve]"}
{"smiles": "C[C@H]1[C@@H]2[C@H]3OC(=O)[C@H](C)C3CC[C@@]2(C)CC[C@@H]1NC(=O)c1ccncc1", "note": "(some centres not stated)", "activity change, negative = inhibition": "inactive: -0.512% [at 172 µM]"}
{"smiles": "COc1cccc(-c2cc3c(=O)n(CCNC(=O)c4ccccc4OC)ccn3n2)c1", "Potency": "inconclusive: 22.4 µM [inhibitor, full curve]"}
{"smiles": "O=C(CCC1CCN(c2cc(NC3CC3)ncn2)CC1)NCc1ccccc1Cl", "Potency": "inconclusive: 56.2 µM [inhibitor, partial curve]"}
{"smiles": "COc1cccc(NC(=O)Cn2c(C)cc3nc4n(c(=O)c32)CCC4)c1", "Potency": "inconclusive: 100 µM [inhibitor, single point]"}
{"smiles": "O=C(CCCc1ccccc1)N1CCC2(CC1)CC(OCC1CC1)CCO2", "note": "(configuration not stated)", "Potency": "inconclusive: 39.8 µM [inhibitor, partial curve, poor fit]"}
{"smiles": "O=C(O)C1(Oc2ccc3ncccc3c2)CCN(Cc2cccnc2)CC1", "activity change, negative = inhibition": "inactive: -1.25%"}
{"smiles": "COCCN1Cc2ccc(Nc3ccc(OC)cc3)nc2C(C)(C(=O)NC2CCC2)C1", "note": "(configuration not stated)", "Potency": "inconclusive: 112 µM [inhibitor, single point]"}
{"smiles": "Cc1cc(Cn2cc3c4c(cccc42)[C@H](CC(C)C)N[C@H](C(=O)NCCN2CCOCC2)C3)no1", "activity change, negative = inhibition": "inactive: 0.177%"}
{"smiles": "CC(=O)c1ccc(NC(=O)N2C[C@@H]3C[C@H](C2)c2ccc(NC(=O)Nc4cccc(C#N)c4)c(=O)n2C3)cc1", "Potency": "inconclusive: 100 µM [inhibitor, single point]"}
{"smiles": "Cc1ncc2c(c1CNC(=O)Cn1cnc3ccccc3c1=O)CCNC2", "Potency": "inconclusive: 56.2 µM [inhibitor, partial curve]"}
{"smiles": "COc1ccc(-c2noc([C@@H]3C[C@H](NS(=O)(=O)c4ccc(F)cc4)CN3C)n2)cc1", "Potency": "active: 17.8 µM"}
{"smiles": "COc1ccc(-c2ccc3ncn(C4CC4)c(=O)c3n2)cc1OC", "Potency": "active: 63.1 µM"}
{"smiles": "O=C(Nc1ccc2c(N3CCCCC3)ncnc2c1)c1ccc(F)cc1F", "Potency": "inconclusive: 44.7 µM [inhibitor, partial curve]"}
{"smiles": "Cc1ccnc(NC(=O)C2CC(=O)N(c3n[nH]c4cc(Br)ccc34)C2)c1", "note": "(configuration not stated)", "Potency": "inconclusive: 56.2 µM [inhibitor, partial curve]"}
{"smiles": "Cc1ccc(NC(=O)c2ccc3c(c2)N(S(C)(=O)=O)CC3)c(C)c1", "Potency": "inconclusive: 3.16 µM [inhibitor, full curve]"}
